Assay results reported in the supplement of paper PMC4967469.
IC50 is the fitted dose that halves viability relative to control wells, and lower means more sensitive; a fit beyond the top or the lowest dose is shown as a bound at that dose. AUC, from the same fit, is the share of area under the viability curve across the 256-fold dose range; values near 1 show little effect. For part of these data: Where the top dose is marked as inferred, it was derived from the fitted curves, not read from the paper.

Key:
Assay in all cases: Viability of human cancer cell lines after 72 h of drug (GDSC screen)
PF-4708671 = compound: CCc1cncnc1N1CCN(Cc2nc3ccc(C(F)(F)F)cc3[nH]2)CC1 [PF-4708671]; details: top dose 10 µM; top dose inferred
Experimental: (§1)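 Human cancer cell lines in 384-well plates, medium with 10% serum, drug for 72 h over a 256-fold dose range (nine 2-fold or five 4-fold steps up to the top dose). Adherent lines were fixed and stained with the nucleic acid dye Syto60, suspension lines read with resazurin; signal relative to control wells, capped at 0 and 100%. One two-parameter sigmoid per drug and line, fitted in a mixed model over all curves with the slope shared within a line.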

AV-951 = compound: COc1cc2nccc(Oc3ccc(NC(=O)Nc4cc(C)on4)c(Cl)c3)c2cc1OC [AV-951]; details: top dose 0.128 µM; top dose inferred
Experimental: as §1

KIN001-244 = compound: O=C(NC(COc1ccc2[nH]c(=O)[nH]c2c1)c1ccccc1)c1cccn(Cc2ccc(F)c(F)c2)c1=O [KIN001-244]; details: top dose 20 µM; top dose inferred
Experimental: as §1

Trametinib = compound: CC(=O)Nc1cccc(-n2c(=O)n(C3CC3)c(=O)c3c(Nc4ccc(I)cc4F)n(C)c(=O)c(C)c32)c1 [Trametinib]; details: top dose 1 µM
Experimental: as §1

I-BET-762 = compound: CCNC(=O)C[C@@H]1N=C(c2ccc(Cl)cc2)c2cc(OC)ccc2-n2c(C)nnc21 [I-BET-762]; details: top dose 20 µM; top dose inferred
Experimental: as §1

HG-6-64-1 = compound: CCN1CCN(Cc2ccc(NC(=O)c3ccc(C)c(/C=C/c4cnc5[nH]ccc5c4OC)c3)cc2C(F)(F)F)CC1 [HG-6-64-1]; details: top dose 5.12 µM; top dose inferred
Experimental: as §1

Row | Cell Line | AUC (PF-4708671) | IC50 (PF-4708671) [nM] | AUC (AV-951) | IC50 (AV-951) [nM] | AUC (KIN001-244) | IC50 (KIN001-244) [nM] | AUC (Trametinib) | IC50 (Trametinib) [nM] | AUC (I-BET-762) | IC50 (I-BET-762) [nM] | AUC (HG-6-64-1) | IC50 (HG-6-64-1) [nM]
1 | JIMT-1 (breast, adherent) | 0.967 | > 10000 | 0.985 | > 128 | 0.908 | > 20000 | 0.676 | 202 | 0.982 | > 20000 | 0.578 | 531
2 | JJN-3 (haematopoietic neoplasm, suspension) | 0.97 | > 10000 | 0.993 | > 128 | 0.867 | 12800 | 0.963 | > 1000 | 0.702 | 4090 | 0.886 | 3880
3 | K2 (melanoma, adherent) | 0.982 | > 10000 | 0.978 | > 128 | 0.918 | > 20000 | 0.162 | 3.98 | 0.969 | > 20000 | 0.752 | 2150
4 | KARPAS-620 (haematopoietic neoplasm, suspension) | 0.978 | > 10000 | 0.984 | > 128 | 0.715 | 4550 | 0.274 | 16 | 0.435 | 855 | 0.729 | 1280
5 | KLE (endometrium, adherent) | 0.91 | > 10000 | 0.967 | > 128 | 0.794 | 15900 | 0.938 | > 1000 | 0.841 | > 20000 | 0.743 | 2410
6 | KMH-2 (thyroid, adherent) | 0.973 | > 10000 | 0.989 | > 128 | 0.953 | > 20000 | 0.068 | < 3.91 | 0.99 | > 20000 | 0.821 | 2550
7 | KMRC-20 (kidney, adherent) | 0.982 | > 10000 | 0.989 | > 128 | 0.981 | > 20000 | 0.879 | > 1000 | 0.989 | > 20000 | 0.793 | 2390
8 | KON (head and neck, adherent) | 0.982 | > 10000 | 0.984 | > 128 | 0.98 | > 20000 | 0.551 | 85.6 | 0.987 | > 20000 | 0.524 | 372
9 | KOSC-2 (head and neck, adherent) | 0.943 | > 10000 | 0.98 | > 128 | 0.963 | > 20000 | 0.578 | 103 | 0.94 | > 20000 | 0.667 | 952
10 | KP-2 (pancreas, adherent) | 0.981 | > 10000 | 0.985 | > 128 | 0.908 | > 20000 | 0.257 | 11.8 | 0.97 | > 20000 | 0.876 | > 5120
11 | KP-3 (pancreas, adherent) | 0.974 | > 10000 | 0.976 | > 128 | 0.901 | > 20000 | 0.807 | 637 | 0.936 | > 20000 | 0.718 | 1510
12 | KP-4 (pancreas, adherent) | 0.946 | > 10000 | 0.915 | > 128 | 0.96 | > 20000 | 0.814 | 515 | 0.988 | > 20000 | 0.859 | 3960
13 | KU-19-19 (bladder, adherent) | 0.921 | > 10000 | 0.987 | > 128 | 0.987 | > 20000 | 0.064 | < 3.91 | 0.987 | > 20000 | 0.949 | > 5120
14 | KYSE-50 (oesophagus, adherent) | 0.828 | 5450 | 0.986 | > 128 | 0.913 | > 20000 | 0.916 | > 1000 | 0.914 | > 20000 | 0.502 | 324
15 | KYSE-70 (oesophagus, adherent) | 0.985 | > 10000 | 0.986 | > 128 | 0.92 | > 20000 | 0.895 | > 1000 | 0.953 | > 20000 | 0.615 | 683
16 | KYSE-150 (oesophagus, adherent) | 0.945 | > 10000 | 0.989 | > 128 | 0.916 | > 20000 | 0.91 | > 1000 | 0.957 | > 20000 | 0.604 | 609
17 | KYSE-180 (oesophagus, adherent) | 0.988 | > 10000 | 0.988 | > 128 | 0.885 | > 20000 | 0.923 | > 1000 | 0.912 | > 20000 | 0.531 | 387
18 | KYSE-220 (oesophagus, adherent) | 0.95 | > 10000 | 0.982 | > 128 | 0.911 | > 20000 | 0.364 | 25.8 | 0.948 | > 20000 | 0.797 | 2570
19 | KYSE-270 (oesophagus, adherent) | 0.991 | > 10000 | 0.991 | > 128 | 0.859 | 12900 | 0.928 | > 1000 | 0.937 | > 20000 | 0.707 | 1110
20 | KYSE-450 (oesophagus, adherent) | 0.988 | > 10000 | 0.977 | > 128 | 0.89 | > 20000 | 0.734 | 277 | 0.75 | 6200 | 0.597 | 582
21 | KYSE-510 (oesophagus, adherent) | 0.975 | > 10000 | 0.992 | > 128 | 0.953 | > 20000 | 0.919 | > 1000 | 0.961 | > 20000 | 0.726 | 1220
22 | LC-1-sq (lung squamous cell carcinoma, adherent) | 0.936 | > 10000 | 0.981 | > 128 | 0.952 | > 20000 | 0.764 | 424 | 0.847 | 18700 | 0.985 | > 5120
